The target of the experiment is T1, extracellular domain of recombinant human FcγRIIIa, His-tagged (human, UniProt P08637 in part).
T1 construct: extracellular domain; also called FcyRIIIa; CD16; not shown: His tag
In words: AlphaScreen bead competition assay, His-tagged FcγRIIIa. For orientation: Bead proximity is the source of the signal in Alpha formats.

T1 sequence (P08637 17-208): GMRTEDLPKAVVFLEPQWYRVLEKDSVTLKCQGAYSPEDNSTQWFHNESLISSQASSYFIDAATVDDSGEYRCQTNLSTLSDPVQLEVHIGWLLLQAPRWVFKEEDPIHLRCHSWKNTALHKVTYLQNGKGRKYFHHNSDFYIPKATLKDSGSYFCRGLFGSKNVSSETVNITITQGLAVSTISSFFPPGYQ

B1: PM-PDL-GEX Fuc- (fucose-reduced bispecific anti-PD-L1/TA-MUC1 hIgG1) (bispecific antibody)
heavy: EVQLVESGGGLVQPGGSMRLSCVASGFPFSNYWMNWVRQAPGKGLEWVGEIRLKSNNYTTHYAESVKGRFTISRDDSKNSLYLQMNSLKTEDTAVYYCTRHYYFDYWGQGTLVTVSS[letters of human IgG1 constant region omitted]
light: not shown
modifications: N-glycans at N297 (EU), 1% core fucosylated
notes: Fucose-reduced glycoform (1%); also called PankoMab-antiPDL1-GEX Fuc-; non-mutated PM-PDL-GEX Fuc-
As for B1, the “fold enhanced binding against PM-PDL-GEX H9D8” value was ~5 fold.

These data come from US20200148785A1 (GLYCOTOPE, published 2020).
